Laboratory results taken from a collection of fitness landscapes (doi:10.1016/j.celrep.2020.107928).
The full ranking holds about 81,000 sequences; the median of “one-hybrid fitness for binding parS DNA” is about -0.17, and the highest 2% start at about 0.51. The list shows a part of the results.

B1: Caulobacter ParB omega fusion; a variant is named by its letters at X, in order, B8GW30 (parent)
chain: MESVVVGEPGMSEGRRGLGRGLSALLGEVDAAPAQAPGEQLGGSREAPIEILQRNPDQPRRTFREEDLEDLSNSIREKGVLQPILVRPSPDTAGEYQIVAGERAWRAAQRAGLKTVPIMVRELDDLAVLEIGIIENVQRADLNVLEEALSYKVLMEKFERTQENIAQTIGKSXSHVANXMRLLXLPDEVQSYLVSGELTAXHARAIAAAADPVALAKQIIEGGLSVRETEALARKAPNLSAGKSKGGRPPRVKDTDTQALESDLSSVLGLDVSIDHRGSTGTLTITYATLEQLDDLCNRLTRGI

Variants of: B1
Assay: one-hybrid fitness for binding parS DNA (scaled: cognate 1, non-cognate 0); higher = stronger binding
Conditions: with parS DNA site
In short: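 On M9-minus-histidine containing 0.1 mM IPTG and 5 mM 3-AT, E. coli USO cells with a HIS3 reporter, site 19 bp from the promoter, grew 48 hours at 37°C to select Caulobacter ParB libraries randomised at four specificity codons. Plasmids from before and after were Illumina-sequenced, with three replicate libraries pooled and variants under 10 reads left out. Fitness is the log change in variant-to-wild-type read ratio, rescaled against cognate and non-cognate.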

one-hybrid fitness for binding parS DNA, 0.921:
RNSG

one-hybrid fitness for binding parS DNA, 0.264:
RWQN

one-hybrid fitness for binding parS DNA, 0.435:
RACY

one-hybrid fitness for binding parS DNA, 0.891:
RRPG

one-hybrid fitness for binding parS DNA, 0.22:
RIGW

one-hybrid fitness for binding parS DNA, 0.973:
RLHC

one-hybrid fitness for binding parS DNA, 1.01:
RFSS

one-hybrid fitness for binding parS DNA, 0.656:
RRTA

one-hybrid fitness for binding parS DNA, 0.28:
SGYA

one-hybrid fitness for binding parS DNA, 0.229:
RHLH

one-hybrid fitness for binding parS DNA, ≤ 0.2:
MGSR
TRDI
MFLC
PFMV
GLNT
ISCD
ARKP
CQFR
DENV
WSPC
LHWI
EFFR
TFDT
FLGY
PCIG
QQVN
GPST
REMW
HGMA
NNAN
ETRG
NKPM
HHQC
SPAN
LCTI
MTFM
QHTH
QAWG
SCAV
ATIL
GMRC
GSFL
VQDY
VKTV
AHDS
RIQV
QYIC
DQIS
DPKN
TPAH
EIVR
LYEW
PHKC
RAPI
PLYV
DISM
RQHR
HCMR
KLRH
PQAS
PSCR
NESG
RHRP
RPKW
ARFL
MDWP
VVAR
RGAF
FVMC
LRWE
SEYC
LISE
LHDG
RSTI
GGRS
DTSS
FTNR
RSGK
RPAK
WHLR
ASKI
VLAW
VFLE
DRMA
AALF
NPEV
EYGG
AISC
PKRT
YFYT
YVMI
SERL
WSSC
QFRK
RTME
DLHG
VYPA
KDNG
SMTR
TPTN
IYMG
YHFS
SDLY
NRRH
RPFR
HYTI
HFFL
QMHH
SAVV
AKLD
TMYP
EQHS
LERG
WKSR
HWAY
KRSN
LCYN
TLSE
HAVS
NTLE
THMT
QNDW
CTDG
SVSI
HYRD
ASQR
NITT
QRKG
VGPA
CCWS
QQYQ
PHAI
PAIR
HANN
GFPL
HWPS
AIET
RDDC
NNKA
GRYD
KVIS
KYWG
VFSY
CIDT
YKHC
LTLT
TAHS
NCEV
CLNS
MQNR
THVV
AFSC
TLYL
IAPV
CKTR
DCRR
HADR
NGSR
RWSP
AINM
SSKN
IGMS
YCEC
WASP
VRSQ
AIRR
MILI
TDWP
YPDG
EDIS
VFKW
APGE
MVAG
MSDN
KQKW
TWYG
NWCT
QCIA
TKRT
DHMR
QMSV
GMMC
TCPP
QLEA
SANN
CDLT
KKTN
ASVF
DYLW
LKFM
RFAP
ELLG
QLPA
PVVG
RTNV
PWDR
HLCV
TACA
QSWC
NCEY
MAKY
RTRI
EMKV
SKKF
YLMS
MAFT
QAND
PNKT
PVSM
ITPL
CLAM
VNPG
GIRT
KGDR
KQAG
QIFG
YIFR
YMPS
MWAC
HEQG
ERPT
NYDV
IHCR
WSVS
WHAS
ADHW
PPFE
YLCL
FNPH
DWVY
AHHM
HSCP
GRLN
IIPT
EYST
EQQG
VKDE
ARVS
QYHI
KRQS
TCTH
LALI
QMLM
GTIL
WKQS
QVFV
KYLS
KKWY
AETM
TYKS
TYDN
ERAM
LSEL
KSQR
RDSS
YKCR
TQGQ
ENKL
KTCL
AQEL
YTVE
SYLN
LVLK
TPPQ
TYFR
TNNS
KPNS
DIMR
TQDR
ESNL
LAQR
PVMY
MGVV
SSYP
IRWP
RGQV
SCRS
TNHF
THFL
HLFS
RHQK
CPER
YWRF
EMGY
ATYC
MPYG
MKSG
NLTN
TGML
DRGE
ANMR
RNAQ
HQHR
QKHM
EGMT
WIQG
AETR
RIHK

one-hybrid fitness for binding parS DNA, 0.874:
RQCC

one-hybrid fitness for binding parS DNA, 0.21:
RQGW

one-hybrid fitness for binding parS DNA, 0.269:
HRTG

one-hybrid fitness for binding parS DNA, 0.206:
RCIE

one-hybrid fitness for binding parS DNA, 0.438:
RQSN

one-hybrid fitness for binding parS DNA, 0.916:
RQGC

one-hybrid fitness for binding parS DNA, 0.219:
RKWF

one-hybrid fitness for binding parS DNA, 0.357:
HRKG
